Source: article PMC12820563, “FoxP3 forms a head-to-head dimer in vivo and stabilizes its multimerization on adjacent microsatellites”
This is one part of the list.

target: T1, MBP-FoxP1dN (Mus musculus, UniProt P58462 326-579); assay: PD-seq (MBP pull-down with sequencing); 20 mM Tris-HCl pH 7.5, 100 mM NaCl, 1.5 mM MgCl2, 0.4 uM protein, 0.1 uM dsDNA library, 30 min, room temperature, amylose pull-down; high values mean tight binding; details: protein: recombinant; tags: His6-MBP; chain copies: 2; dsDNA, one strand shown
T1 sequence: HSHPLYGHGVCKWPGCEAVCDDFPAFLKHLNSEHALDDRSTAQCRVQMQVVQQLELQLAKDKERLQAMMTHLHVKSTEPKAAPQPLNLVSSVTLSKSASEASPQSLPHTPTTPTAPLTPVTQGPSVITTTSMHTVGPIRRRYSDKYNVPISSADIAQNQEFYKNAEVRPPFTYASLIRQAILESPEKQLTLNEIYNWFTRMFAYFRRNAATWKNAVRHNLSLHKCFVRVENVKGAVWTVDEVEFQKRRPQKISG
Procedure, shortened: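 His6-MBP-tagged mouse FoxP3 or FoxP1 fragment lacking the N-terminus, expressed in E. coli, was mixed at 0.4 µM with 0.1 µM Klenow-filled double-stranded degenerate DNA library. Incubation was 30 min at room temperature in Tris pH 7.5 buffer with NaCl and MgCl2. Complexes were caught on amylose resin and washed three times; DNA was released with proteinase K, PCR-barcoded and Illumina-sequenced. Binding is reads-per-million enrichment, pull-down over input, with replicates pooled.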

Sequence	binding signal
GATGATTGTTCTCCCAGCTGATGAATTCGGCGATTCGAGTAAACAAATTTTCCTAATCTTTCTGTTCAAGCGCCATCTAC	0.834 RPM ratio (pull-down/input)
GATGATTGTTCTCCCAGCTGATGAATTTCTCGATTCGAGTAAACAAATTTTCCTAATCTTTCTGTTCAAGCGCCATCTAC	0.855 RPM ratio (pull-down/input)
GATGATTGTTCTCCCAGCTGATGAATTATTGCCGTCGAGTAAACAAATTTTCCTAATCTTTCTGTTCAAGCGCCATCTAC	1.09 RPM ratio (pull-down/input)
GATGATTGTTCTCCCAGCTGATGAATTAAGCCTATCGAGTAAACAAATTTTCCTAATCTTTCTGTTCAAGCGCCATCTAC	0.873 RPM ratio (pull-down/input)
GATGATTGTTCTCCCAGCTGATGAATTACCTTAGTCGAGTAAACAAATTTTCCTAATCTTTCTGTTCAAGCGCCATCTAC	0.91 RPM ratio (pull-down/input)
GATGATTGTTCTCCCAGCTGATGAATTACAGCGTTCGAGTAAACAAATTTTCCTAATCTTTCTGTTCAAGCGCCATCTAC	1.07 RPM ratio (pull-down/input)
GATGATTGTTCTCCCAGCTGATGAATTGCCGCATTCGAGTAAACAAATTTTCCTAATCTTTCTGTTCAAGCGCCATCTAC	1.26 RPM ratio (pull-down/input)
GATGATTGTTCTCCCAGCTGATGAATTACCATGGTCGAGTAAACAAATTTTCCTAATCTTTCTGTTCAAGCGCCATCTAC	0.846 RPM ratio (pull-down/input)
GATGATTGTTCTCCCAGCTGATGAATTCCACCCTTCGAGTAAACAAATTTTCCTAATCTTTCTGTTCAAGCGCCATCTAC	0.773 RPM ratio (pull-down/input)
GATGATTGTTCTCCCAGCTGATGAATTATTGGACTCGAGTAAACAAATTTTCCTAATCTTTCTGTTCAAGCGCCATCTAC	0.979 RPM ratio (pull-down/input)
GATGATTGTTCTCCCAGCTGATGAATTCGAGAACTCGAGTAAACAAATTTTCCTAATCTTTCTGTTCAAGCGCCATCTAC	0.811 RPM ratio (pull-down/input)
GATGATTGTTCTCCCAGCTGATGAATTAGAATAATCGAGTAAACAAATTTTCCTAATCTTTCTGTTCAAGCGCCATCTAC	1.24 RPM ratio (pull-down/input)
GATGATTGTTCTCCCAGCTGATGAATTTTAACAATCGAGTAAACAAATTTTCCTAATCTTTCTGTTCAAGCGCCATCTAC	1.32 RPM ratio (pull-down/input)
GATGATTGTTCTCCCAGCTGATGAATTTTGGAATTCGAGTAAACAAATTTTCCTAATCTTTCTGTTCAAGCGCCATCTAC	0.924 RPM ratio (pull-down/input)
GATGATTGTTCTCCCAGCTGATGAATTTAGTCGTTCGAGTAAACAAATTTTCCTAATCTTTCTGTTCAAGCGCCATCTAC	0.97 RPM ratio (pull-down/input)
GATGATTGTTCTCCCAGCTGATGAATTCCATCTGTCGAGTAAACAAATTTTCCTAATCTTTCTGTTCAAGCGCCATCTAC	0.871 RPM ratio (pull-down/input)
GATGATTGTTCTCCCAGCTGATGAATTGTACCTATCGAGTAAACAAATTTTCCTAATCTTTCTGTTCAAGCGCCATCTAC	0.989 RPM ratio (pull-down/input)
GATGATTGTTCTCCCAGCTGATGAATTTTACGGATCGAGTAAACAAATTTTCCTAATCTTTCTGTTCAAGCGCCATCTAC	0.879 RPM ratio (pull-down/input)
GATGATTGTTCTCCCAGCTGATGAATTGAGCCCGTCGAGTAAACAAATTTTCCTAATCTTTCTGTTCAAGCGCCATCTAC	0.741 RPM ratio (pull-down/input)
GATGATTGTTCTCCCAGCTGATGAATTCGCCTCGTCGAGTAAACAAATTTTCCTAATCTTTCTGTTCAAGCGCCATCTAC	0.82 RPM ratio (pull-down/input)
GATGATTGTTCTCCCAGCTGATGAATTGAAAAGGTCGAGTAAACAAATTTTCCTAATCTTTCTGTTCAAGCGCCATCTAC	0.796 RPM ratio (pull-down/input)

Sequence	binding signal
GATGATTGTTCTCCCAGCTGATGAATTATCGCGATCGAGTAAACAAATTTTCCTAATCTTTCTGTTCAAGCGCCATCTAC	0.929 RPM ratio (pull-down/input)
GATGATTGTTCTCCCAGCTGATGAATTATCGTGGTCGAGTAAACAAATTTTCCTAATCTTTCTGTTCAAGCGCCATCTAC	0.937 RPM ratio (pull-down/input)
GATGATTGTTCTCCCAGCTGATGAATTTGCGCGTTCGAGTAAACAAATTTTCCTAATCTTTCTGTTCAAGCGCCATCTAC	1.12 RPM ratio (pull-down/input)
GATGATTGTTCTCCCAGCTGATGAATTATTTGCTTCGAGTAAACAAATTTTCCTAATCTTTCTGTTCAAGCGCCATCTAC	1.56 RPM ratio (pull-down/input)
GATGATTGTTCTCCCAGCTGATGAATTTGGGGTTTCGAGTAAACAAATTTTCCTAATCTTTCTGTTCAAGCGCCATCTAC	0.784 RPM ratio (pull-down/input)
GATGATTGTTCTCCCAGCTGATGAATTCCCTTTCTCGAGTAAACAAATTTTCCTAATCTTTCTGTTCAAGCGCCATCTAC	0.783 RPM ratio (pull-down/input)
GATGATTGTTCTCCCAGCTGATGAATTCAAATGCTCGAGTAAACAAATTTTCCTAATCTTTCTGTTCAAGCGCCATCTAC	1.03 RPM ratio (pull-down/input)
GATGATTGTTCTCCCAGCTGATGAATTTCAAGTTTCGAGTAAACAAATTTTCCTAATCTTTCTGTTCAAGCGCCATCTAC	0.908 RPM ratio (pull-down/input)
GATGATTGTTCTCCCAGCTGATGAATTGCCCTACTCGAGTAAACAAATTTTCCTAATCTTTCTGTTCAAGCGCCATCTAC	0.904 RPM ratio (pull-down/input)
GATGATTGTTCTCCCAGCTGATGAATTCGATACGTCGAGTAAACAAATTTTCCTAATCTTTCTGTTCAAGCGCCATCTAC	0.918 RPM ratio (pull-down/input)
GATGATTGTTCTCCCAGCTGATGAATTCAATACCTCGAGTAAACAAATTTTCCTAATCTTTCTGTTCAAGCGCCATCTAC	0.912 RPM ratio (pull-down/input)
GATGATTGTTCTCCCAGCTGATGAATTTGTGCGTTCGAGTAAACAAATTTTCCTAATCTTTCTGTTCAAGCGCCATCTAC	1.2 RPM ratio (pull-down/input)
GATGATTGTTCTCCCAGCTGATGAATTACTGGCGTCGAGTAAACAAATTTTCCTAATCTTTCTGTTCAAGCGCCATCTAC	0.996 RPM ratio (pull-down/input)
GATGATTGTTCTCCCAGCTGATGAATTGGTGGGATCGAGTAAACAAATTTTCCTAATCTTTCTGTTCAAGCGCCATCTAC	0.82 RPM ratio (pull-down/input)
GATGATTGTTCTCCCAGCTGATGAATTGCACCACTCGAGTAAACAAATTTTCCTAATCTTTCTGTTCAAGCGCCATCTAC	1.1 RPM ratio (pull-down/input)
GATGATTGTTCTCCCAGCTGATGAATTGTTCCCTTCGAGTAAACAAATTTTCCTAATCTTTCTGTTCAAGCGCCATCTAC	1.12 RPM ratio (pull-down/input)
GATGATTGTTCTCCCAGCTGATGAATTACTTTTGTCGAGTAAACAAATTTTCCTAATCTTTCTGTTCAAGCGCCATCTAC	1.17 RPM ratio (pull-down/input)
GATGATTGTTCTCCCAGCTGATGAATTTGGTCACTCGAGTAAACAAATTTTCCTAATCTTTCTGTTCAAGCGCCATCTAC	0.948 RPM ratio (pull-down/input)
GATGATTGTTCTCCCAGCTGATGAATTAATCAAATCGAGTAAACAAATTTTCCTAATCTTTCTGTTCAAGCGCCATCTAC	1.04 RPM ratio (pull-down/input)
GATGATTGTTCTCCCAGCTGATGAATTGCCGTTTTCGAGTAAACAAATTTTCCTAATCTTTCTGTTCAAGCGCCATCTAC	1.05 RPM ratio (pull-down/input)
GATGATTGTTCTCCCAGCTGATGAATTAGAGTGTTCGAGTAAACAAATTTTCCTAATCTTTCTGTTCAAGCGCCATCTAC	1.03 RPM ratio (pull-down/input)

Sequence	binding signal
GATGATTGTTCTCCCAGCTGATGAATTTACAGGGTCGAGTAAACAAATTTTCCTAATCTTTCTGTTCAAGCGCCATCTAC	1.02 RPM ratio (pull-down/input)
GATGATTGTTCTCCCAGCTGATGAATTTGTTCACTCGAGTAAACAAATTTTCCTAATCTTTCTGTTCAAGCGCCATCTAC	1.17 RPM ratio (pull-down/input)
GATGATTGTTCTCCCAGCTGATGAATTGATCAACTCGAGTAAACAAATTTTCCTAATCTTTCTGTTCAAGCGCCATCTAC	1.08 RPM ratio (pull-down/input)
GATGATTGTTCTCCCAGCTGATGAATTTTTGGAGTCGAGTAAACAAATTTTCCTAATCTTTCTGTTCAAGCGCCATCTAC	0.838 RPM ratio (pull-down/input)
GATGATTGTTCTCCCAGCTGATGAATTACGATGATCGAGTAAACAAATTTTCCTAATCTTTCTGTTCAAGCGCCATCTAC	1.1 RPM ratio (pull-down/input)
GATGATTGTTCTCCCAGCTGATGAATTAAACTTGTCGAGTAAACAAATTTTCCTAATCTTTCTGTTCAAGCGCCATCTAC	0.918 RPM ratio (pull-down/input)
GATGATTGTTCTCCCAGCTGATGAATTGCATAGTTCGAGTAAACAAATTTTCCTAATCTTTCTGTTCAAGCGCCATCTAC	1.24 RPM ratio (pull-down/input)
GATGATTGTTCTCCCAGCTGATGAATTCAAGCAGTCGAGTAAACAAATTTTCCTAATCTTTCTGTTCAAGCGCCATCTAC	0.947 RPM ratio (pull-down/input)
GATGATTGTTCTCCCAGCTGATGAATTCCCACATTCGAGTAAACAAATTTTCCTAATCTTTCTGTTCAAGCGCCATCTAC	0.955 RPM ratio (pull-down/input)
GATGATTGTTCTCCCAGCTGATGAATTGCATCGATCGAGTAAACAAATTTTCCTAATCTTTCTGTTCAAGCGCCATCTAC	1.2 RPM ratio (pull-down/input)
GATGATTGTTCTCCCAGCTGATGAATTTCTCTCATCGAGTAAACAAATTTTCCTAATCTTTCTGTTCAAGCGCCATCTAC	0.883 RPM ratio (pull-down/input)
GATGATTGTTCTCCCAGCTGATGAATTAGTGAGGTCGAGTAAACAAATTTTCCTAATCTTTCTGTTCAAGCGCCATCTAC	0.86 RPM ratio (pull-down/input)
GATGATTGTTCTCCCAGCTGATGAATTCCCAAACTCGAGTAAACAAATTTTCCTAATCTTTCTGTTCAAGCGCCATCTAC	0.789 RPM ratio (pull-down/input)
GATGATTGTTCTCCCAGCTGATGAATTAGAACACTCGAGTAAACAAATTTTCCTAATCTTTCTGTTCAAGCGCCATCTAC	0.949 RPM ratio (pull-down/input)
GATGATTGTTCTCCCAGCTGATGAATTGTGCGGTTCGAGTAAACAAATTTTCCTAATCTTTCTGTTCAAGCGCCATCTAC	1.04 RPM ratio (pull-down/input)
GATGATTGTTCTCCCAGCTGATGAATTCCTTGTATCGAGTAAACAAATTTTCCTAATCTTTCTGTTCAAGCGCCATCTAC	0.973 RPM ratio (pull-down/input)
GATGATTGTTCTCCCAGCTGATGAATTTCCTATGTCGAGTAAACAAATTTTCCTAATCTTTCTGTTCAAGCGCCATCTAC	0.811 RPM ratio (pull-down/input)
GATGATTGTTCTCCCAGCTGATGAATTATATTGATCGAGTAAACAAATTTTCCTAATCTTTCTGTTCAAGCGCCATCTAC	2.09 RPM ratio (pull-down/input)
GATGATTGTTCTCCCAGCTGATGAATTGGCGTAGTCGAGTAAACAAATTTTCCTAATCTTTCTGTTCAAGCGCCATCTAC	0.837 RPM ratio (pull-down/input)
GATGATTGTTCTCCCAGCTGATGAATTGACCGTTTCGAGTAAACAAATTTTCCTAATCTTTCTGTTCAAGCGCCATCTAC	0.977 RPM ratio (pull-down/input)
GATGATTGTTCTCCCAGCTGATGAATTTAGTTTCTCGAGTAAACAAATTTTCCTAATCTTTCTGTTCAAGCGCCATCTAC	0.929 RPM ratio (pull-down/input)
